Experimental data: PubChem BioAssay AID1963964 (Molecular Pharmacology Branch, DTP, NCI, 2024)
Not every entry of the source has a single result; some have several. They are shown here; other results are not. An entry can have further records. The values listed for one entry repeat one measurement in other runs, samples, wells, individuals or studies.

System: 997726-040-R-J2-PDC tumor spheroids, viability
Test: Anticancer human tumor 997726-040-R-J2-PDC patient-derived squamous cell lung carcinoma cell line growth inhibition [PI3K]
Conditions: spheroids with HUVEC and MSC; for viability, T/C: stronger effect = lower value; for IC50: compound alone
Text: Combinatorial screen of targeted agents with the PI3K inhibitors inavolisib, alpelisib, duvelisib, and copanlisib in multi-cell type tumor spheroids
A high-throughput screen of multi-cell type tumor spheroids was designed to identify active combinations of targeted small molecules and PI3K pathway inhibitors. Complex spheroids include a stromal component modeled by human endothelial cells (HUVEC) and fibroblasts modeled by human mesenchymal stem cells (MSCs). The concentration ranges selected for each drug and investigational agent were based upon clinically achievable concentrations if the clinical Cmax of the agent was known.
Compounds. The drugs and investigational agents: inavolisib (NSC800729), alpelisib (NSC765974), duvelisib (NSC772469), copanlisib (NSC816437), ipatasertib (NSC767898), afuresertib (NSC778305), talazoparib (NSC767125), sapanisertib (NSC764658), selumetinib (NSC741078), tovorafenib (DAY101, NSC766906), vemurafenib (NSC761431), ravoxertinib (NSC781343), sotorasib (NSC818433), MRTX1133 (NSC 836407), abemaciclib (NSC 768073), palbociclib (NSC758247), venetoclax (NSC 766270), SY5609 (NSC837396), enzalutamide (NSC755605), and darolutamide (NSC825331), were obtained from the National Cancer Institute (NCI) Developmental Therapeutics Program Chemical Repository. The FDA-approved anticancer drug set is available from the NCI Developmental Therapeutics Program. […] The stock solutions were prepared in dimethyl sulfoxide (DMSO, Sigma-Aldrich, St. Louis, MO, cat. D2650) at 800-fold the tested concentration and stored at -70 degrees C prior to their use. All drugs and investigational agents were tested over a range starting from a high concentration at or near the clinical Cmax and decreasing in half-log increments. If the clinical Cmax for an agent had not been determined, the highest concentration tested was 10 microM.
Cell Culture. All cells were maintained in an incubator at 37 degrees C and 5% CO2 with 95% humidity. The PDC lines were cultured according to standard operating procedures established by the NCI PDMR (https://pdmr.cancer.gov/sops/default.htm). All PDCs were thawed and cultured in Matrigel-coated flasks prepared with a working solution of 1X Ham's F-12 nutrient mix, without supplementation (Invitrogen, Waltham, MA, cat. 11765054), 100 U/mL penicillin-streptomycin (Invitrogen, cat. 15140122), and 2.5% Matrigel (Corning Inc., Corning, NY, cat. 354248) for the first three passages. The 354836-022-R-J1-PDC, 475296-252-R-J1-PDC, and 997726-040-R-J2-PDC lines were cultured in 6A media, which includes advanced DMEM/F-12 (Thermo Fisher Scientific, cat. 12634028), 10 mM HEPES (Thermo Fisher Scientific, cat. 15630080), 1X GlutaMAX supplement (Thermo Fisher Scientific, cat. 35050061), 0.1 mg/mL primocin (InvivoGen, San Diego, CA, cat. ant-pm-2), 10% defined fetal bovine serum, heat inactivated (HyClone Laboratories Inc., Logan, UT, cat. SH30070.03HI), 50% L-WRN conditioned media (ATCC, cat. CRL-3276), 1.25 mM N-Acetyl-L-cysteine (Sigma-Aldrich, cat. A9165), 10 mM nicotinamide (Sigma-Aldrich, cat. N0636), 1X B-27 supplement (Thermo Fisher Scientific, cat. 17504044), 1X N-2 supplement (Thermo Fisher Scientific, cat. 17502048), and 10 microM Y-27632 dihydrochloride (Tocris Bioscience, Bristol, United Kingdom, cat. 1254). The 624824-186-R-J2-PDC line was cultured in 6C/Colon 1B media, which includes all 6A media components plus 50 ng/mL human EGF recombinant protein (Thermo Fisher Scientific, cat. PHG0311). […]
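Also: spheroids exposed to compounds for seven days before readout.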

Structure (SMILES)	viability, T/C (compound alone 3.16 µM)	IC50	further results
CC1(C)CCC(Nc2ncc(C(F)(F)F)c(-c3c[nH]c4c(P(C)(C)=O)c(C#N)ccc34)n2)CN1 (configuration not stated)	36.6, 35, 60.6, 52.3%	< 31.6 nM, 3.38 µM, 31.6 nM	–
CC1(C)CCC(CN2CCN(c3ccc(C(=O)NS(=O)(=O)c4ccc(NCC5CCOCC5)c([N+](=O)[O-])c4)c(Oc4cnc5[nH]ccc5c4)c3)CC2)=C(c2ccc(Cl)cc2)C1	–	–	viability, T/C (compound alone 0.316 µM): 83.9, 99.7, 113, 102%
CCN1CCN(Cc2ccc(Nc3ncc(F)c(-c4cc(F)c5nc(C)n(C(C)C)c5c4)n3)nc2)CC1	–	–	viability, T/C (compound alone 1 µM): 60.2, 63.9, 86.3, 85.4%
Cn1cnc2c(F)c(Nc3ccc(Br)cc3Cl)c(C(=O)NOCCO)cc21	–	264, 286, 87.9, 447 nM	–
C[C@@H](NC(=O)c1ncnc(N)c1Cl)c1ncc(C(=O)Nc2cc(C(F)(F)F)c(Cl)cn2)s1	–	–	viability, T/C (compound alone 0.0316 µM): 118, 97.8, 130, 122%
CCCS(=O)(=O)Nc1ccc(F)c(C(=O)c2c[nH]c3ncc(-c4ccc(Cl)cc4)cc23)c1F	121, 103, 159, 164%	–	–
